The chains are these.
B1: LINE1-mini (parent)
chain: GGCAGAGCUCAACACAGCGUGGCAAAGUGGCUGUGGCUAGACUGCC

Read counts are not given, so values of variants with three or more changes are uncertain.

Experimental findings from the RNAGym collection of RNA variant scans (doi:10.7554/elife.90254) are described below.

The data set covers variants of B1. The data set can be described thus: self-cleavage, relative activity (ratio to wild type); higher = more cleavage; in vitro, sequencing; the parent is a self-cleaving ribozyme.
As to GGCAGAGCUCAACACGGCGUGGCCACGUGGCCGUGGCUAGACUGCC [A16G A24C A26C U32C], the self-cleavage amounted to 0.2.
To GGCAGAGCUCAACACGUCGUCGAAAAGUGGCUGUGGCUAGACUGCC [A16G G17U G21C C23A] belongs 0.06; to GGCAGAGCUCAACACGGCGUGGCAAUGUGGCUGUGGAUAGACUGCC [A16G A26U C37A], 0.01.
On to GGCAGAGCUCAACACGGCGUGGCAAUGUGGCUGUGGCUAGACUGCA [A16G A26U C46A], for which the self-cleavage is 0.05.
Regarding GGCAGAGCUCAACACGGCGUGGCAAUGUGGCUGUGGCUAGACUGCU [A16G A26U C46U], the self-cleavage is 0.45.
As for GGCAGAGCUCAACACCGCGUGGCAAAGGGGCUGUGGCUAAACUGCC [A16C U28G G40A], the self-cleavage is 0.01.
Turning to GGCAGAGCUCAACACCGCGAGGCAAAGUGGCUGUGGCUCGACUGCC [A16C U20A A39C], the self-cleavage is 0.02.
Take GGCAGAGCUCAACACCGCGUGGCAAAGUGGCUGGUGCUAGACUGCC [A16C U34G G35U]: the self-cleavage came out at 0.04.
To GGCAGAGCUCAACACCGCGGGGCAAAGUGGCUGUAGCUAGGCUUCC [A16C U20G G35A A41G G44U] belongs 0.02; to GGCAGAGCUCAACACGGCGUGGCAAAGUGGGUGCGGCUGGCCUGCC [A16G C31G U34C A39G A41C], 0.02; to GGCAGAGCUCAACACCGCGAGGCAAAGUGGCUGUUGCUAGACUGCC [A16C U20A G35U], 0.01.
In the case of GGCAGAGCUCAACACCGCGGGGCAAAGUGGCUGUGGCUAGACUGAC [A16C U20G C45A], the self-cleavage is 0.02.
As for GGCAGAGCUCAACACCGCGGGGCAAAGUGUCUGUGGCUAGACUGCC [A16C U20G G30U], the self-cleavage is 0.04.
The result for GGCAGAGCUCAACACCGCGUGGCAAAGUGGCAGUGGCUAAACUGCU [A16C U32A G40A C46U] reads 0.09; that for GGCAGAGCUCAACACCGCGGGGCAAAGUGGUUGUGGCUAGACUGCC [A16C U20G C31U], 0.02; that for GGCAGAGCUCAACACGGCGUGGCAAAGUGGCUGUGGGUAGGCUGCC [A16G C37G A41G], 0.
Consider GGCAGAGCUCAACACGGCGUGGCAAAGUGGCUGUGGCUCUACUGCC [A16G A39C G40U], for which the self-cleavage is 0.02.
Consider GGCAGAGCUCAACACGGCGUGGCAAUGUGGAUGUGGCUAGUCUGCC [A16G A26U C31A A41U], for which the self-cleavage was determined as 0.02.
Consider GGCAGAGCUCAACACCGCGUGGCAAAGCGGAUGUGACUAGACUGCC [A16C U28C C31A G36A], for which the self-cleavage came to 0.04.
Regarding GGCAGAGCUCAACACGGCGUGGCAACGUGGCUGUGGCUAGAAUGCC [A16G A26C C42A], the self-cleavage turned out to be 0.02.
To GGCAGAGCUCAACACCGCGUGGCAAAGUGGCUGUAGCUAUACUGCC [A16C G35A G40U] belongs 0.04.
Regarding GGCAGAGCUCAACACGACGUGUCAAAGUGGCUGUGGCUAGACUGCC [A16G G17A G22U], the self-cleavage came out at 0.03.
The result for GGCAGAGCUCAACACGGCAUGGCAAAGUCGCUAUGGCUAGACUGCC [A16G G19A G29C G33A] reads 0.08; that for GGCAGAGCUCAACACGGCGUGGCCAAGUGCCUGUGGUUAGACUGCC [A16G A24C G30C C37U], 0.01; that for GGCAGAGCUCAACACCGCGCGGGAAAGCGGCUUUGGCUAGUAUGCC [A16C U20C C23G U28C G33U A41U C42A], 0.04.
As to GGCAGAGCUCAACACCGCGUGGCAAAGUGGCUGUGACUAAACUGCC [A16C G36A G40A], the self-cleavage was determined as 0.02.
To GGCAGAGCUCAACACGGCGUGGCAAAGUGGAUGUGGCUAGAGUGCC [A16G C31A C42G] belongs 0.01; to GGCAGAGCUCAACACCGCGUGGCAAAGUGGCUGUGGCUAUGCUGCG [A16C G40U A41G C46G], 0; to GGCAGAGCUCAACACGGCGUGGCAUAGUUGCUGUUGCUAGACUGCC [A16G A25U G29U G35U], 0.02.
Consider GGCAGAGCUCAACACGGAGUGGCCAUGUGGCUGUGGCUAGACUGCC [A16G C18A A24C A26U], for which the self-cleavage came out at 0.07.
As to GGCAGAGCUCAACACCGCGUGGCAAAGUGGCCGUGGCUCGACUGCC [A16C U32C A39C], the self-cleavage was 0.
Consider GGCAGAGCUCAACACGGCGUGGGAAAGUGGCUGUGGGUAGACUGCC [A16G C23G C37G], for which the self-cleavage was determined as 0.01.
Take GGCAGAGCUCAACACGGUGUGGCAAAGUGUCUGUGGCUAGACUGCC [A16G C18U G30U]: the self-cleavage came to 0.03.
GGCAGAGCUCAACACCGCGCGGCAAAGUGGCUGUGGCUAGACUGCG [A16C U20C C46G]: the self-cleavage came to 0.08.
The result for GGCAGAGCUCAACACGGCGUGGCAUAAUGGCUGUGGCUAGACUGCC [A16G A25U G27A] reads 0.35; that for GGCAGAGCUCAACACGGCGUGGCAUAUUGGCUGUGGCUAGACUGCC [A16G A25U G27U], 1.96; that for GGCAGAGCUCAACACGGCGUGGAAUAGUGGCUGUGGCUAGACUGCC [A16G C23A A25U], 0.23.
Take GGCAGAGCUCAACACGGCGUGGCAAAGUGGCUGUGGCUGGACUUCC [A16G A39G G44U]: the self-cleavage was determined as 0.01.
In the case of GGCAGAGCUCAACACCGCGUGGCAAAGUGGCUGUGUCUAGACUGAC [A16C G36U C45A], the self-cleavage amounted to 0.03.
Regarding GGCAGAGCUCAACACGUCGUGGCAGAGUGGCUGUGGCUAGACUCCC [A16G G17U A25G G44C], the self-cleavage was found to be 0.04.
Turning to GGCAGAGCUCAACACGGCGUGGCAAAGUGGUUGUGGCUAAACUACU [A16G C31U G40A G44A C46U], the self-cleavage amounted to 0.02.
With GGCAGAGCUCAACACGGCGUGGCAAAGUGGCUGUGGCUAGCCUCCC [A16G A41C G44C], the self-cleavage worked out at 0.06.
In the case of GGCAGAGCUCAACACGGUGUCGCAAAAUGGUUGUGGCUAGACUGCC [A16G C18U G21C G27A C31U], the self-cleavage came out at 0.02.
The result for GGCAGAGCUCAACACGGCAUGGUAAAGUGGCUGUGGCUAGACUGCC [A16G G19A C23U] reads 0.35; that for GGCAGAGCUCAACACGGUGGGGUAAAGUGGCUGUGGCUAGACUGCG [A16G C18U U20G C23U C46G], 0.12; that for GGCAGAGCUCAACACGCCGUGGCAAAGUGGCUGUGGCUAGACUGAC [A16G G17C C45A], 1.25.
Consider GGCAGAGCUCAACACGGUGUGGCAACGUUGCUGUGGCUAGAAUGCC [A16G C18U A26C G29U C42A], for which the self-cleavage was found to be 0.04.
To GGCAGAGCUCAACACGGCGUGGCAACGUGGCUGUGGCGAGACUGCC [A16G A26C U38G] belongs 0.03; to GGCAGAGCUCAACACGGAGUGGCAAAGUGGCAGUGGCUAGACUGCC [A16G C18A U32A], 0.2; to GGCAGAGCUCAACACGGCGUGGCAAAGUGGCUGUGGUUAAACUGUC [A16G C37U G40A C45U], 0.06.
To GGCAGAGCUCAACACGGCUUGGCAAAGUGGUUGUGGGUAGACUGCC [A16G G19U C31U C37G] belongs 0.02.
For the variant GGCAGAGCUCAACACGGCUUUGCAAAGAGGCUGUGGCUAGACUGCC [A16G G19U G21U U28A], the self-cleavage is 0.72.
Take GGCAGAGCUCAACACGGCGUGGUAAAGUGGCUGUGGCUAGACGGCC [A16G C23U U43G]: the self-cleavage stood at 0.02.
With GGCAGAGCUCAACACGGAGUGGCAAAGUGGCUGUGUCUAGCCUGCC [A16G C18A G36U A41C], the self-cleavage amounted to 0.01.
As for GGCAGAGCUCAACACGCCGUGGCAAAGCGGCUAUGGCUAGACUGCC [A16G G17C U28C G33A], the self-cleavage is 0.03.
With GGCAGAGCUCAACACCGCGUGGCAAAGUGGCUGUGGCUAGACUACG [A16C G44A C46G], the self-cleavage amounted to 0.05.
